{
  "source": "PubChem BioAssay (NCATS)",
  "key": {"[1]": {"assay": "qHTS for Inhibitors of Plasmodium falciparum (GB4) proliferation (AID 504315); note: nearly all actives have a fitted effect of over 50% in size; note: potency is the fitted concentration of half-maximal effect", "conditions": "P. falciparum GB4 in erythrocytes, SYBR Green DNA, 72 h; activity change, negative = inhibition: at 6.7 µM (top of the series)", "in_short": "(§1)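 Parasite growth measured as SYBR Green DNA fluorescence (ex 485, em 535 nm) after overnight lysis following 72 h culture at 37 °C, 0.3% parasitemia, 2.5% hematocrit. Values normalized against DMSO and 0.29 uM artemisinin controls, with plate-stack correction.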"}, "[2]": {"assay": "qHTS for Inhibitors of Plasmodium falciparum (HB3) proliferation (AID 504318)", "conditions": "P. falciparum HB3 in erythrocytes, SYBR Green DNA, 72 h; activity change, negative = inhibition: at 7.21 µM (top of the series)", "in_short": "as §1"}, "[3]": {"assay": "qHTS for Inhibitors of Plasmodium falciparum (7G8) proliferation (AID 504316)", "conditions": "P. falciparum 7G8 in erythrocytes, SYBR Green DNA, 72 h; activity change, negative = inhibition: at 6.7 µM (top of the series)", "in_short": "as §1"}, "[4]": {"assay": "qHTS for Inhibitors of Plasmodium falciparum (CP250) proliferation (AID 504320)", "in_short": "as §1"}},
  "note": "The inconclusive results got no clear call from the source; some entries with a clear call stand among them for comparison. For some assays here: No potency is given beside an inconclusive call; the fits are too rough. The source made the active and inactive calls. Calls come from the whole dose curve; as a rule, active = well fitted curve in the direction sought with a large enough effect; inconclusive = small, poorly fitted or top-dose-only effect, or another doubt; inactive = no such curve, though single readings can be large; an effect the other way counts as inactive or inconclusive. Tags give direction and shape of the fitted curve.",
  "data": [
    {"smiles": "COC1(C#C[C@@H]2C=C[C@H](OC(C)=O)[C@@H](COC(C)=O)O2)CCCCC1", "values": [
      {"measurement": "Potency", "setting": "[1]", "value": "inconclusive [inhibitor, partial curve, poor fit]"},
      {"measurement": "Potency", "setting": "[2]", "value": "inconclusive [inhibitor, single point]"}
    ]},
    {"smiles": "COC(=O)N1C(c2ccccc2)=Cc2ccccc2C1CC(C)=O", "note": "(configuration not stated)", "values": [
      {"measurement": "Potency", "setting": "[1]", "value": "inconclusive [inhibitor, partial curve, poor fit]"},
      {"measurement": "Potency", "setting": "[2]", "value": "inconclusive [inhibitor, partial curve, poor fit]"}
    ]},
    {"smiles": "C=CCOC(=O)NC(c1ccc(F)c(F)c1)C(C(=O)CCl)C(=O)OC", "note": "(configuration not stated)", "values": [
      {"measurement": "Potency", "setting": "[1]", "value": "inconclusive [activator, partial curve, poor fit]"},
      {"measurement": "Potency", "setting": "[2]", "value": "inactive"}
    ]},
    {"smiles": "COC(=O)CCC(=O)OC1(C)C(=O)C2=CN(C(CO)CO)C(c3ccc(OC)cc3)=CC2=C(Br)C1=O", "note": "(configuration not stated)", "values": [
      {"measurement": "Potency", "setting": "[1]", "value": "inactive"},
      {"measurement": "Potency", "setting": "[2]", "value": "inactive"}
    ]},
    {"smiles": "C[C@H]1CC[C@H]2C(=O)N(Cc3ccc(Cl)cc3)C[C@H](O)CN2[C@H]1c1ccc(Br)cc1", "values": [
      {"measurement": "Potency", "setting": "[1]", "value": "inconclusive [inhibitor, single point]"},
      {"measurement": "Potency", "setting": "[2]", "value": "inconclusive [inhibitor, single point]"}
    ]},
    {"smiles": "COC/C=C/C1=CC2=CC(=O)C(C)(OC(=O)c3cnc4ccccc4n3)C(=O)C2=CN1c1ccccc1", "note": "(configuration not stated)", "values": [
      {"measurement": "Potency", "setting": "[1]", "value": "inactive"},
      {"measurement": "Potency", "setting": "[2]", "value": "inactive"}
    ]},
    {"smiles": "C[C@H]1Cc2c(-c3ccccc3)nc3c(c2CO1)CN(C(=O)NCCc1c[nH]c2ccccc12)CC3", "values": [
      {"measurement": "Potency", "setting": "[1]", "value": "inconclusive [inhibitor, full curve, poor fit]"},
      {"measurement": "Potency", "setting": "[2]", "value": "inactive"}
    ]},
    {"smiles": "CCN1C(=NCCc2ccc(Br)cc2)NC(c2ccccc2)C(C(=O)OC)=C1C", "note": "(configuration not stated)", "values": [
      {"measurement": "Potency", "setting": "[1]", "value": "inconclusive [inhibitor, partial curve, poor fit]"},
      {"measurement": "Potency", "setting": "[3]", "value": "inactive"},
      {"measurement": "Potency", "setting": "[4]", "value": "inconclusive [inhibitor, partial curve, poor fit]"}
    ]}
  ]
}
